# Assay results: the supplement of paper PMC12067230
# This is a noisy data set.
# Assay: amyloid nucleation score relative to library mode (yeast Sup35 reporter selection) (log enrichment difference); higher = more amyloid nucleation; sequences are the first 22 residues of the Bri2 peptide extended by up to 12 random residues
# Conditions: random library (experiment): 1;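 active = nucleation score significantly above 0 at FDR 0.05; inactive = not significantly above 0 or absent from output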
# 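Also: [psi-pin-] Saccharomyces cerevisiae expressing SupN fusions, induced by 100 µM Cu2SO4, selected 7 d at 30 °C without adenine and uracil, scored by deep sequencing of output versus input.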
row,Sequence,amyloid nucleation score
1,EASNCFAIRHFENKFAVETLICLNQAFCEPAGLG,inactive
2,EASNCFAIRHFENKFAVETLICLNQMAHRVEAIV,inactive
3,EASNCFAIRHFENKFAVETLICLNRQKQVMWSMR,inactive
4,EASNCFAIRHFENKFAVETLICLNRSGLYEWGVG,2.49
5,EASNCFAIRHFENKFAVETLICLNRTFCPRCSDT,5.54
6,EASNCFAIRHFENKFAVETLICLNSERTSSPTPR,0
7,EASNCFAIRHFENKFAVETLICLNSGPTHSYAER,inactive
8,EASNCFAIRHFENKFAVETLICLNTFCLCIRPQR,5.05
9,EASNCFAIRHFENKFAVETLICLNTGFKGNQPLS,2.6
10,EASNCFAIRHFENKFAVETLICLNTGWGGCGCRS,8.28
11,EASNCFAIRHFENKFAVETLICLNVFYNFVRFVT,inactive
12,EASNCFAIRHFENKFAVETLICLNVGISLFGVYV,inactive
13,EASNCFAIRHFENKFAVETLICLNVYCCTYCPSA,7.76
14,EASNCFAIRHFENKFAVETLICLNWFWRGCMGKA,inactive
15,EASNCFAIRHFENKFAVETLICLNWSLGAGRGVM,0.6
16,EASNCFAIRHFENKFAVETLICLPA,inactive
17,EASNCFAIRHFENKFAVETLICLPAGGNYGVAQA,inactive
18,EASNCFAIRHFENKFAVETLICLPAIKTNRCGYS,inactive
19,EASNCFAIRHFENKFAVETLICLPARLELLWCMC,0.664
20,EASNCFAIRHFENKFAVETLICLPDVNLVLLKP,inactive
21,EASNCFAIRHFENKFAVETLICLPESCGTKPNQL,inactive

row,Sequence,amyloid nucleation score
1,EASNCFAIRHFENKFAVETLICLPESIMVSSLRV,-0.116
2,EASNCFAIRHFENKFAVETLICLPGCGPYCSDSA,7.97
3,EASNCFAIRHFENKFAVETLICLPHGV,inactive
4,EASNCFAIRHFENKFAVETLICLPIDDSSLRDPI,-0.179
5,EASNCFAIRHFENKFAVETLICLPISCCIVVCMN,2.21
6,EASNCFAIRHFENKFAVETLICLPKKNALGRDGC,1.8
7,EASNCFAIRHFENKFAVETLICLPKLSVICLCVS,inactive
8,EASNCFAIRHFENKFAVETLICLPLEHEGHEGCM,inactive
9,EASNCFAIRHFENKFAVETLICLPLISFELLLGG,-0.146
10,EASNCFAIRHFENKFAVETLICLPMGLLVAFRCN,inactive
11,EASNCFAIRHFENKFAVETLICLPNANVR,inactive
12,EASNCFAIRHFENKFAVETLICLPPSFMC,8.53
13,EASNCFAIRHFENKFAVETLICLPQFLSGTSACW,7.25
14,EASNCFAIRHFENKFAVETLICLPRDSTLNRGCL,-0.227
15,EASNCFAIRHFENKFAVETLICLPSAL,inactive
16,EASNCFAIRHFENKFAVETLICLPSEG,inactive
17,EASNCFAIRHFENKFAVETLICLPSVRGLYIPTS,-0.916
18,EASNCFAIRHFENKFAVETLICLPVAWDYCCQVG,5.5
19,EASNCFAIRHFENKFAVETLICLPVEFCRLGVPW,7.89
20,EASNCFAIRHFENKFAVETLICLPVFTSCSSDR,6.21
21,EASNCFAIRHFENKFAVETLICLPVGRVPPKPLR,3.27

row,Sequence,amyloid nucleation score
1,EASNCFAIRHFENKFAVETLICLPVSGALDGYTR,inactive
2,EASNCFAIRHFENKFAVETLICLPWPRGCCCWPS,7.97
3,EASNCFAIRHFENKFAVETLICLPWRR,7
4,EASNCFAIRHFENKFAVETLICLPWTDVECPCRV,5.22
5,EASNCFAIRHFENKFAVETLICLPYDTPVSWCDR,inactive
6,EASNCFAIRHFENKFAVETLICLPYGRAKRVQVG,inactive
7,EASNCFAIRHFENKFAVETLICLPYRDTPSVERR,3.24
8,EASNCFAIRHFENKFAVETLICLQC,6.91
9,EASNCFAIRHFENKFAVETLICLQCTLALLWDGV,inactive
10,EASNCFAIRHFENKFAVETLICLQESCWWHGSRG,4.26
11,EASNCFAIRHFENKFAVETLICLQFKAWNESRLK,inactive
12,EASNCFAIRHFENKFAVETLICLQFVLKWGGS,inactive
13,EASNCFAIRHFENKFAVETLICLQHTKLSNPVYS,inactive
14,EASNCFAIRHFENKFAVETLICLQKACLKFHHTR,0.514
15,EASNCFAIRHFENKFAVETLICLQLSLRFTARGR,0.627
16,EASNCFAIRHFENKFAVETLICLQM,7.3
17,EASNCFAIRHFENKFAVETLICLQRVLTCWRKWM,inactive
18,EASNCFAIRHFENKFAVETLICLQVM,inactive
19,EASNCFAIRHFENKFAVETLICLR,-0.137

# Same assay, conditions: random library (experiment): 2
row,Sequence,amyloid nucleation score
1,EASNCFAIRHFENKFAVETLICLNQCVNACMCFS,5.42
2,EASNCFAIRHFENKFAVETLICLNRDSRNHANSG,inactive
3,EASNCFAIRHFENKFAVETLICLNRDVFVQGRNI,4.5
4,EASNCFAIRHFENKFAVETLICLNRKCIIYWN,inactive
5,EASNCFAIRHFENKFAVETLICLNSRPGVRARAR,inactive
6,EASNCFAIRHFENKFAVETLICLNTHDYVLNLRW,inactive
7,EASNCFAIRHFENKFAVETLICLNTPAVFLCWCM,5.78
8,EASNCFAIRHFENKFAVETLICLNVCQPQSPACT,inactive
9,EASNCFAIRHFENKFAVETLICLNVNFRMLMVED,-0.0392
10,EASNCFAIRHFENKFAVETLICLNVTNASSFDSV,6.53
11,EASNCFAIRHFENKFAVETLICLNWLCYKWLWQF,inactive
12,EASNCFAIRHFENKFAVETLICLNWLGVGCVYKR,0.105
13,EASNCFAIRHFENKFAVETLICLNYLLHFGDIKW,inactive
14,EASNCFAIRHFENKFAVETLICLPCGHDQ,5.81
15,EASNCFAIRHFENKFAVETLICLPDGLRPWEWVG,5.16
16,EASNCFAIRHFENKFAVETLICLPGSCSSSWSIA,6.44
17,EASNCFAIRHFENKFAVETLICLPIVNRLDTYGA,inactive
18,EASNCFAIRHFENKFAVETLICLPNGNEGFCVLR,inactive
19,EASNCFAIRHFENKFAVETLICLPNT,inactive
20,EASNCFAIRHFENKFAVETLICLPRSKVFPCRKL,inactive
21,EASNCFAIRHFENKFAVETLICLPWSSNNEHRGA,7.37
22,EASNCFAIRHFENKFAVETLICLPYMQFFVCNND,8.41
23,EASNCFAIRHFENKFAVETLICLQLLRENKAQLS,inactive
24,EASNCFAIRHFENKFAVETLICLQRIAIVCLKRE,inactive
25,EASNCFAIRHFENKFAVETLICLQSDTVLCMSIG,-0.113
26,EASNCFAIRHFENKFAVETLICLQVCRFIRGSRV,-0.278
27,EASNCFAIRHFENKFAVETLICLQY,1.84

# Same assay, conditions: random library (experiment): 3
row,Sequence,amyloid nucleation score
1,EASNCFAIRHFENKFAVETLICLNMWRT,inactive
2,EASNCFAIRHFENKFAVETLICLNTDISNLGYDG,4.13
3,EASNCFAIRHFENKFAVETLICLNVNDTSDSM,6.73
4,EASNCFAIRHFENKFAVETLICLNVRYSCVPRYN,5.24
5,EASNCFAIRHFENKFAVETLICLP,-0.0854
6,EASNCFAIRHFENKFAVETLICLPCRLVR,inactive
7,EASNCFAIRHFENKFAVETLICLPESGHCCVGHP,5.24
8,EASNCFAIRHFENKFAVETLICLPGNGLPPGLRG,3.4
9,EASNCFAIRHFENKFAVETLICLPHFSVLDMYCC,7.49
10,EASNCFAIRHFENKFAVETLICLPIGLFRYGDAE,8.33
11,EASNCFAIRHFENKFAVETLICLPKHCSLLRTMV,inactive
12,EASNCFAIRHFENKFAVETLICLPLTTGCEFSAW,inactive
13,EASNCFAIRHFENKFAVETLICLPPLGTPRRNCL,1.1
14,EASNCFAIRHFENKFAVETLICLPQCCTPIVGGS,0.758
15,EASNCFAIRHFENKFAVETLICLPQWSNKMRFLE,inactive
16,EASNCFAIRHFENKFAVETLICLPRITCRYFN,4.5
17,EASNCFAIRHFENKFAVETLICLPRSS,2.95

row,Sequence,amyloid nucleation score
1,EASNCFAIRHFENKFAVETLICLPS,inactive
2,EASNCFAIRHFENKFAVETLICLPWRKH,inactive
3,EASNCFAIRHFENKFAVETLICLPYCNSTPFFAS,6.88
4,EASNCFAIRHFENKFAVETLICLQ,1.18
5,EASNCFAIRHFENKFAVETLICLQCPCRSSAVVG,5.42
6,EASNCFAIRHFENKFAVETLICLQMCISVSAMCG,inactive
7,EASNCFAIRHFENKFAVETLICLQRIALH,3.83
8,EASNCFAIRHFENKFAVETLICLQSMVKRGVGVS,inactive
9,EASNCFAIRHFENKFAVETLICLQSVGWRHGSGV,4.66
10,EASNCFAIRHFENKFAVETLICLQVGRRRRSAG,inactive
11,EASNCFAIRHFENKFAVETLICLQVREFQ,inactive
12,EASNCFAIRHFENKFAVETLICLQWC,7.74
13,EASNCFAIRHFENKFAVETLICLQWGRGFERTSP,1.64
14,EASNCFAIRHFENKFAVETLICLQYSNRLMSMVW,inactive
15,EASNCFAIRHFENKFAVETLICLRAEGVSGCARM,inactive
16,EASNCFAIRHFENKFAVETLICLRARE,inactive
